# Laboratory results: publication PMC4336329 (PLoS ONE, 2015)
# Among all 310,000 compounds or so, about 14,000 (4.5%) showed an effect of 50% or more. The effect is printed as a negative number. This is one part of the list.
# Molecular target: human ether-à-go-go-related gene (hERG) potassium channel (human, UniProt Q12809)
# Experiment: primary screen, population patch clamp on CHO cells stably expressing hERG
# 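Note: peak tail current of the secondary pulse compared with the same well before compound.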
# Chain of human ether-à-go-go-related gene (hERG) potassium channel (Q12809 whole entry, looked up): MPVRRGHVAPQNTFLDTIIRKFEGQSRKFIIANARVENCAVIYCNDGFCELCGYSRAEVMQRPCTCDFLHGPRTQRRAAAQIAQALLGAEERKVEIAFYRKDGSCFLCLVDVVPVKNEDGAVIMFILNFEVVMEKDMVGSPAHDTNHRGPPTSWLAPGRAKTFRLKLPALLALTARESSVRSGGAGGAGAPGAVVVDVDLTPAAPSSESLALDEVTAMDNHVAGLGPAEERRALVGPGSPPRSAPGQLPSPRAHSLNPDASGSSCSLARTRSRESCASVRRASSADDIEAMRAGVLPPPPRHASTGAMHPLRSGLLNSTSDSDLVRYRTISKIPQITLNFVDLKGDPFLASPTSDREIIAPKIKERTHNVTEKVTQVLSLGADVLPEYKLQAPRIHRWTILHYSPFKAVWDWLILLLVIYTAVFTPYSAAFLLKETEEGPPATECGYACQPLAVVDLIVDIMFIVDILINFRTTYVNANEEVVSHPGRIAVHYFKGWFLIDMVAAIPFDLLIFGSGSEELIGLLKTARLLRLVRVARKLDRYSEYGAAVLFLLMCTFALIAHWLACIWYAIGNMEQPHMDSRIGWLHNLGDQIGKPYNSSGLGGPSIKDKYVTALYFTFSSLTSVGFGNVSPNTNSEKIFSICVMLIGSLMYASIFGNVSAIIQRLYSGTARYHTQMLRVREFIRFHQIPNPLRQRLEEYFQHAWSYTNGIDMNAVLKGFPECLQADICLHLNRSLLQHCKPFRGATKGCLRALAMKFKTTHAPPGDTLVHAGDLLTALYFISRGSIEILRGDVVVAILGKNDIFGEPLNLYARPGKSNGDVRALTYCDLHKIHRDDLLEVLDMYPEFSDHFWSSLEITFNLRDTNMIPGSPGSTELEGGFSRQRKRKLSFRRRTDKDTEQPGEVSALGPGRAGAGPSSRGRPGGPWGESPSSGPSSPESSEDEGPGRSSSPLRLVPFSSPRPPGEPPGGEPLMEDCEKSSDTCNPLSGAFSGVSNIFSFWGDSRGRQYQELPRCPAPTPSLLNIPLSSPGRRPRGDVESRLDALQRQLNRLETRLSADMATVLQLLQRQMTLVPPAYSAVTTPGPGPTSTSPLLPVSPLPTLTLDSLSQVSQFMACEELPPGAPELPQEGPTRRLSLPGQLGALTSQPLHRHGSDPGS
row,SMILES,"hERG current change (%, negative = inhibition) at 10uM"
1,Cc1ccc(-n2nnc3c(=O)n(CC(=O)NCC4CCCO4)cnc32)cc1 (stereo not drawn),-4.75%
2,CN1CCN(c2ccc(NC(=O)CN3CCOCC3)cc2F)CC1,24.5%
3,CC(C)(C)c1nc[nH]c(=O)c1Br,-0.274%
4,COc1ccc2[nH]c(=O)c(-c3nnn(-c4ccc(Cl)c(Cl)c4)n3)cc2c1,8.2%
5,O=C(O)c1cc(-c2cc3ccccc3o2)nn1-c1ccccc1,2.03%
6,O=C(N/N=C/c1ccccc1O)/C(=C/c1ccccc1)CCO,-8.63%
7,C=CCN1C(=O)CSC1=Nc1ccc(C(=O)O)cc1,4.98%
8,Cc1ccc(C(=O)Nc2ccc3c(c2)OCCO3)c(Cl)c1,6.17%
9,CC(C)(C)NC(=O)C(c1ccc(F)cc1)N(CC1CCCO1)C(=O)CCC(=O)Nc1ccccn1 (stereo not drawn),-3.52%
10,CCCCOc1ccc(C(=O)N/C(=C\c2cccc([N+](=O)[O-])c2)C(=O)OCCC)cc1,13%
11,O=C(NCc1ccc(CNC(=O)c2ccco2)cc1)c1ccco1,14.2%
12,Cc1ccccc1CN(C)C(=O)CNC(=O)c1ccc2ccccc2c1,-8.5%
13,COc1ccc(C(=O)c2ccc(Br)cc2)cc1,-0.756%
14,Cc1nc(Oc2cccc(Cl)c2)c2oc3ccccc3c2n1,24.3%
15,COc1cc2c(cc1OC)C(COc1ccc(F)cc1)N(C(=O)c1ccco1)CC2 (stereo not drawn),-28.6%
16,O=C(OCc1ccco1)c1ccc(S(=O)(=O)N2CCCCC2)cc1,-8.51%
17,CC(C)NC(=O)c1cnn2c1NC(c1cccs1)CC2C(F)(F)F (stereo not drawn),17%
18,COc1ccc(CNC(=O)C2CC(c3ccc(C(F)(F)F)cc3)=NO2)cc1 (stereo not drawn),7.34%
19,O=S(=O)(c1ccccc1)c1cnn2c(C(F)(F)F)cc(-c3ccc(F)cc3)nc12,-8.47%

row,SMILES,"hERG current change (%, negative = inhibition) at 10uM"
1,CCc1ccc(C2C3=C(CC(C)(C)CC3=O)Nc3c2c(=O)[nH]c2nc(C)nn32)cc1 (stereo not drawn),16.1%
2,NC(=S)Nc1ccc2c(c1)OCO2,15.6%
3,CC(C)CC(NC(=O)c1ccco1)C(=O)Nc1ccc2c(c1)OCCO2 (stereo not drawn),-0.517%
4,COC(=O)C(NC(=O)c1ccccc1)c1ccccc1 (stereo not drawn),5.97%
5,COc1ccccc1OCCCn1c(=O)oc2ccccc21,-6.19%
6,CC(C)C(=O)NCC(c1ccc2c(c1)OCO2)N1CCOCC1 (stereo not drawn),11.3%
7,CC(C)c1ccc(OCC(=O)NC2CC(C)(C)NC(C)(C)C2)c(Br)c1,-34%
8,Cc1ccc(NC(=S)N(Cc2ccccc2)C(C)C)cc1,12%
9,COc1ccc(S(=O)(=O)Nc2nnc(CC(C)C)s2)cc1,-8.48%
10,O=C1COc2ccc(NC(=O)N3CCN(c4ccc(F)cc4)CC3)cc2N1,-79.8%
11,Cc1ccc(NC(=O)COc2coc(CN3CCN(c4ccccc4)CC3)cc2=O)cc1,1.7%
12,Cc1cccc(C(=O)NCCCNC(=O)c2cccnc2)c1,4.33%
13,CC1CN(CC(=O)Nc2nc(-c3ccc(Cl)cc3)cs2)CC(C)O1 (stereo not drawn),-27.6%
14,CSc1ccc(CN(C)CC(=O)Nc2cccc(Br)c2)cc1,-1.24%
15,COc1cc(NS(=O)(=O)c2ccccc2)ccc1-n1nc(C)cc1C,2.82%
16,COc1cc(NC2=CC(=O)CC(C)(C)C2)cc(OC)c1,6.65%
17,COc1ccc(CNC(=O)NC(C)(C)c2cccc(C(C)(C)NC(=O)NCc3ccc(OC)cc3)c2)cc1,1.7%
18,COc1ccc(Br)c(-c2nnc(CS(=O)(=O)c3ccccc3)o2)c1,-29.3%
19,O=C(Nc1cccc(S(=O)(=O)NC2=NCCC2)c1)c1ccccc1OC(F)F,-3.52%

row,SMILES,"hERG current change (%, negative = inhibition) at 10uM"
1,COc1ccc(-c2nn(CC(=O)N(C)C)c(=O)c3ccccc23)cc1,-18.5%
2,COc1ccc(NC(=O)Nc2nnc(Cc3ccc(OC)c(OC)c3)s2)cc1,20.7%
3,Cc1cccc(Cc2cnc(NC(=O)C3=NCCN3)s2)c1,7.23%
4,CCOc1ccccc1N(CC(=O)NCc1ccco1)C(=O)CCC(=O)Nc1nccs1,-2.82%
5,CCn1nc(NS(=O)(=O)c2cccc3nonc23)c2cc3ccc(C)cc3nc21,2.62%
6,COc1ccc(S(=O)(=O)N2CCNC(=O)C2)cc1Br,11%
7,Cc1cccc(NC(=O)CSCC(=O)Nc2cc(S(=O)(=O)N3CCOCC3)ccc2N2CCCC2)c1,-10.5%
8,CCCC1NC(C(=O)O)Cc2c1[nH]c1ccccc21 (stereo not drawn),6.71%
9,CCc1ccccc1NS(=O)(=O)c1cccc2nsnc12,-14.9%
10,Cc1cc(OCCCC(=O)NCCc2ccccn2)ccc1Cl,3.2%
11,Cc1ccccc1C(=O)Nc1ccc(C(=O)N/N=C/c2ccccn2)cc1,3.91%
12,O=C(OCc1ccccc1)C1=NNC2C(=O)N(c3ccccc3)C(=O)C12 (stereo not drawn),1.21%
13,CCN1CCN(c2cc(C)c3cc(NC(=O)c4cncc(Br)c4)ccc3n2)CC1,-51.8%
14,O=C(Nc1ccccc1C(F)(F)F)N1CCN(c2ccc3nnc(-c4ccc(F)cc4)n3n2)CC1,-65.9%
15,CC1(C)CC2CC(C)(CN2S(=O)(=O)c2cccc(C(=O)OCC(=O)NC(N)=O)c2)C1 (stereo not drawn),-57.1%
16,COc1ccccc1-c1cc(C(=O)O)c2c(=O)n(C)c(=O)n(Cc3ccccc3)c2n1,16.7%
17,Cc1cc(Br)ccc1SCC(=O)OCC(=O)NC1CCCC1,7.59%
18,COc1cnn(-c2cccc(C(F)(F)F)c2)c(=O)c1Cl,3.08%
19,CC(=O)Oc1ccc2c(C)c(CC(=O)N3CCN(C(=O)C4COc5ccccc5O4)CC3)c(=O)oc2c1C (stereo not drawn),-69.6%
